The test concerns NCI-H1944. The test is described as follows: normalised cell viability (NPI; 0 = phenylarsine oxide control, 1 = DMSO control) (fraction of DMSO control); NCI-H1944 is a non-small cell lung cancer line; higher = more viable cells (less compound toxicity). The conditions noted are these: 6 days.
Setting [1] is: glucocorticoid arm: hydrocortisone 2.75 uM co-treatment, compound 1 µM.
Where [2] appears, read: glucocorticoid arm: hydrocortisone 2.75 uM co-treatment, compound 5 µM.
[3] abbreviates: glucocorticoid arm: hydrocortisone 2.75 uM pre-treated 2 days and continued, compound 1 µM.
Setting [4] is: glucocorticoid arm: hydrocortisone 2.75 uM pre-treated 2 days and continued, compound 5 µM.
Where [5] appears, read: glucocorticoid arm: vehicle, compound 1 µM.
The mark [6] stands for this setting: glucocorticoid arm: vehicle, compound 5 µM.

Structures can show the parent of a compound that is named as a salt. ± gives the standard deviation of the averaged measurements. The full ranking holds about 1,900 compounds; the median of “normalised cell viability (NPI; 0 = phenylarsine oxide control, 1 = DMSO control)” is about 1, and the lowest 2% start at about 0.039. The list shows a part of the results.
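Note: CTB read-out in 384-well plates, mean of triplicate wells, normalised per plate against 1 µM phenylarsine oxide and 0.1% DMSO, compounds added 24 h after seeding.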

With `COC(=O)C1=CCCN(C)C1` [Arecoline], the normalised cell viability by setting is: under setting [1], 0.994 ± 0.02; under setting [2], 0.9957 ± 0.0059; under setting [3], 1 ± 0.016; under setting [4], 1 ± 0.012; under setting [5], 0.995 ± 0.007; under setting [6], 1.007 ± 0.0058.
With `COC(=O)C1=CCCN(C)C1` [Arecoline hydrobromide], the normalised cell viability by setting is: under setting [1], 1 ± 0.021; under setting [2], 1.01 ± 0.022; under setting [3], 0.988 ± 0.014; under setting [4], 1; under setting [5], 0.999 ± 0.011; under setting [6], 1.007 ± 0.0058.
For the molecule `N[C@@H](CCl)C(=O)O` [beta-Chloro-L-alanine hydrochloride], the normalised cell viability by setting is: under setting [1], 1.002 ± 0.0076; under setting [2], 1.01 ± 0.015; under setting [3], 0.9987 ± 0.0023; under setting [4], 0.985 ± 0.036; under setting [5], 0.991 ± 0.01; under setting [6], 0.99 ± 0.011.
As to `Fc1ccc(C(OCCN2CCN(CCCc3ccccc3)CC2)c2ccc(F)cc2)cc1`, the normalised cell viability amounted to 0.963 ± 0.014 under setting [1]; 0.601 ± 0.013 under setting [2]; 0.991 ± 0.013 under setting [3]; 1.01 ± 0.027 under setting [4]; 1.01 ± 0.01 under setting [5]; 0.721 ± 0.28 under setting [6].
Regarding `CC[C@H]1CN2CCc3cc(OC)c(OC)cc3[C@@H]2C[C@@H]1C[C@H]1NCCc2cc(OC)c(OC)cc21` [Emetine dihydrochloride hydrate], the normalised cell viability runs as follows: under setting [1], 0.0625 ± 0.016; under setting [2], 0.0175 ± 0.00036; under setting [3], 0.342 ± 0.016; under setting [4], 0.165 ± 0.0093; under setting [5], 0.0125 ± 0.001; under setting [6], 0.0108 ± 0.0029.
With `COc1cc([C@@H]2c3cc4c(cc3[C@H](O)[C@H]3COC(=O)[C@H]23)OCO4)cc(OC)c1OC` [Podophyllotoxin], the normalised cell viability under setting [1] was determined as 0.338 ± 0.0087; the normalised cell viability under setting [2] was 0.278 ± 0.027; the normalised cell viability under setting [3] stood at 0.927 ± 0.019; the normalised cell viability under setting [4] is 0.892 ± 0.07; the normalised cell viability under setting [5] came to 0.0738 ± 0.0056; the normalised cell viability under setting [6] amounted to 0.057 ± 0.011.
Regarding `CS(=N)(=O)CC[C@H](N)C(=O)O` (stereo partly drawn) [L-Methionine sulfoximine], the normalised cell viability by setting is: under setting [1], 1.003 ± 0.0058; under setting [2], 1.01 ± 0.024; under setting [3], 0.998 ± 0.01; under setting [4], 0.948 ± 0.093; under setting [5], 0.9987 ± 0.0023; under setting [6], 1 ± 0.013.
With `CCN(CCCl)CCOC(C)=O` [Acetylethylcholine mustard hydrochloride], the normalised cell viability reads like this: under setting [1], 1.01 ± 0.015; under setting [2], 1.02 ± 0.034; under setting [3], 1.01 ± 0.013; under setting [4], 1.11 ± 0.061; under setting [5], 0.995 ± 0.0046; under setting [6], 1.01 ± 0.015.
Take `COc1ccc2c(c1)/C(=C/c1cnc[nH]1)C(=O)N2`: the normalised cell viability is, setting by setting: under setting [1], 1.03 ± 0.015; under setting [2], 0.24 ± 0.0031; under setting [3], 1.03; under setting [4], 0.871 ± 0.28; under setting [5], 0.9907 ± 0.006; under setting [6], 0.132 ± 0.041.
For `CCCN(CCC)CCc1ccc(O)c(O)c1` [Dipropyldopamine hydrobromide], the normalised cell viability worked out at 0.997 ± 0.015 under setting [1]; 0.999 ± 0.018 under setting [2]; 0.9943 ± 0.0081 under setting [3]; 0.984 ± 0.024 under setting [4]; 0.9893 ± 0.0042 under setting [5]; 0.9947 ± 0.0015 under setting [6].
On to `Ic1ccccc1CNC1C2CCN(CC2)C1C(c1ccccc1)c1ccccc1` [L-703,606 oxalate], for which the normalised cell viability was found to be 0.9813 ± 0.0067 under setting [1]; 0.699 ± 0.05 under setting [2]; 1.013 ± 0.0058 under setting [3]; 1.04 ± 0.086 under setting [4]; 1.013 ± 0.0058 under setting [5]; 0.132 ± 0.059 under setting [6].
Regarding `NCCc1c[nH]c2ccc(O)cc12` [Serotonin hydrochloride], the normalised cell viability worked out at 1 ± 0.015 under setting [1]; 0.98 ± 0.015 under setting [2]; 1 ± 0.013 under setting [3]; 0.964 ± 0.021 under setting [4]; 1.02 ± 0.01 under setting [5]; 1.01 ± 0.01 under setting [6].
As for `CCC(COC(=O)c1cc(OC)c(OC)c(OC)c1)(c1ccccc1)N(C)C` (configuration not stated) [Trimebutine], the normalised cell viability under setting [1] came to 0.969 ± 0.017; the normalised cell viability under setting [2] worked out at 0.921 ± 0.0092; the normalised cell viability under setting [3] is 0.978 ± 0.017; the normalised cell viability under setting [4] was found to be 0.936 ± 0.032; the normalised cell viability under setting [5] was determined as 0.9893 ± 0.0093; the normalised cell viability under setting [6] is 0.9927 ± 0.0031.
With `C=C(C)[C@@H]1[C@H]2OC(=O)[C@@H]1[C@]1(O)C[C@H]3OC34C(=O)O[C@H]2[C@@]41C.CC(C)(O)[C@@H]1[C@H]2OC(=O)[C@@H]1[C@]1(O)C[C@H]3OC34C(=O)O[C@H]2[C@@]41C` (some centres not stated) [Picrotoxin], the normalised cell viability is, setting by setting: under setting [1], 0.991 ± 0.012; under setting [2], 0.998 ± 0.028; under setting [3], 0.995 ± 0.0061; under setting [4], 0.9897 ± 0.0091; under setting [5], 1.005 ± 0.0087; under setting [6], 1.001 ± 0.0081.
Regarding `CCCN1CCc2cc(O)cc3c2[C@H]1Cc1ccc(O)c(O)c1-3` [R(-)-2,10,11-Trihydroxy-N-propylnoraporphine hydrobromide], the normalised cell viability runs as follows: under setting [1], 0.989 ± 0.023; under setting [2], 0.979 ± 0.012; under setting [3], 0.987 ± 0.015; under setting [4], 0.959 ± 0.0066; under setting [5], 0.977 ± 0.011; under setting [6], 0.971 ± 0.016.
On to `C[C@@]12N[C@@H](Cc3ccccc31)c1ccccc12` [(-)-MK 801 Maleate], for which the normalised cell viability turned out to be 1.023 ± 0.0058 under setting [1]; 1.02 under setting [2]; 1.02 ± 0.011 under setting [3]; 1.03 ± 0.015 under setting [4]; 1.01 under setting [5]; 1.01 under setting [6].
For the molecule `C[C@@]12N[C@@H](Cc3ccccc31)c1ccccc12` [(-)-MK-801 hydrogen maleate], the normalised cell viability is, setting by setting: under setting [1], 1.01 ± 0.01; under setting [2], 1.02 ± 0.026; under setting [3], 1.013 ± 0.0058; under setting [4], 1.05 ± 0.094; under setting [5], 0.992 ± 0.0092; under setting [6], 1 ± 0.017.

These data come from the supplement of paper PMC8285479.
